Assay results: the supplement of paper PMC12230231

The sequences below were run on SIVsab (simian immunodeficiency virus of sabaeus monkeys), single-cycle GFP reporter, in CRFK cells (assay: enrichment among uninfected cells over input (fold); higher = stronger restriction). Details: library: human / rhesus combinations.
Description: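 Pools of CRFK cells expressing variants of the TRIM5α v1 loop were challenged with the single-cycle reporter, sorted by GFP and sequenced; mean of two replicates.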
For “MASGILVNVKEEVTCPICLELLTQPLSLDCGHSFCQACLTANHKKSMLDKGESSCPVCRISYQPENIRPNRHVANIVEKLREVKLSPEGQKVDHCARHGEKLLLFCQEDGKVICWLCERSQEHRGHHTFLTEEVAREYQVKLQAALEMLRQKQQEAEELEADIREEKASWKTQIQYDKTNVLADFEQLRDILDWEESNELQNLEKEEEDILKSLTNSETEMVQQTQSLRELISDLEHRLQGSVMELLQGVDGVIKRTENVTLKKPETFPKNQRRVFRAPDLKGMLEVFRELTDVRRYWVDVTVAPNNISCAVISEDKRQVSSPKPQIIYGAPGTRFTFPSLVNFNYCTGILGSQSITSGKHYWEVDVSKKTAWILGVCAGFQPDAMCNIEKNENYQPKYGYWVIGLEEGVKCSAFQDSSFHTPSVPFIVPLSVIICPDRVGVFLDYEACTVSFFNITNHGFLIYKFSHCSFSQPVFPYLNPRKCGVPMTLCSPSS [human TRIM5α, 330-340 = GAPGTRFTFPSLV]”, the enrichment was 0.182 ± 0.08. For “MASGILVNVKEEVTCPICLELLTQPLSLDCGHSFCQACLTANHKKSMLDKGESSCPVCRISYQPENIRPNRHVANIVEKLREVKLSPEGQKVDHCARHGEKLLLFCQEDGKVICWLCERSQEHRGHHTFLTEEVAREYQVKLQAALEMLRQKQQEAEELEADIREEKASWKTQIQYDKTNVLADFEQLRDILDWEESNELQNLEKEEEDILKSLTNSETEMVQQTQSLRELISDLEHRLQGSVMELLQGVDGVIKRTENVTLKKPETFPKNQRRVFRAPDLKGMLEVFRELTDVRRYWVDVTVAPNNISCAVISEDKRQVSSPKPQIIYGAPGTLFTFPTFTNFNYCTGILGSQSITSGKHYWEVDVSKKTAWILGVCAGFQPDAMCNIEKNENYQPKYGYWVIGLEEGVKCSAFQDSSFHTPSVPFIVPLSVIICPDRVGVFLDYEACTVSFFNITNHGFLIYKFSHCSFSQPVFPYLNPRKCGVPMTLCSPSS [human TRIM5α, 330-340 = GAPGTLFTFPTFT]”, the enrichment was 18.5 ± 5.4. In the case of “MASGILVNVKEEVTCPICLELLTQPLSLDCGHSFCQACLTANHKKSMLDKGESSCPVCRISYQPENIRPNRHVANIVEKLREVKLSPEGQKVDHCARHGEKLLLFCQEDGKVICWLCERSQEHRGHHTFLTEEVAREYQVKLQAALEMLRQKQQEAEELEADIREEKASWKTQIQYDKTNVLADFEQLRDILDWEESNELQNLEKEEEDILKSLTNSETEMVQQTQSLRELISDLEHRLQGSVMELLQGVDGVIKRTENVTLKKPETFPKNQRRVFRAPDLKGMLEVFRELTDVRRYWVDVTVAPNNISCAVISEDKRQVSSPKPQIIYQAPGTRFPSFVNFNYCTGILGSQSITSGKHYWEVDVSKKTAWILGVCAGFQPDAMCNIEKNENYQPKYGYWVIGLEEGVKCSAFQDSSFHTPSVPFIVPLSVIICPDRVGVFLDYEACTVSFFNITNHGFLIYKFSHCSFSQPVFPYLNPRKCGVPMTLCSPSS [human TRIM5α, 330-340 = QAPGTRFPSFV]”, the enrichment is reported as 0.487 ± 0.16.

Same assay, conditions: library: insertions and deletions
Sequence “MASGILVNVKEEVTCPICLELLTQPLSLDCGHSFCQACLTANHKKSMLDKGESSCPVCRISYQPENIRPNRHVANIVEKLREVKLSPEGQKVDHCARHGEKLLLFCQEDGKVICWLCERSQEHRGHHTFLTEEVAREYQVKLQAALEMLRQKQQEAEELEADIREEKASWKTQIQYDKTNVLADFEQLRDILDWEESNELQNLEKEEEDILKSLTNSETEMVQQTQSLRELISDLEHRLQGSVMELLQGVDGVIKRTENVTLKKPETFPKNQRRVFRAPDLKGMLEVFRELTDVRRYWVDVTVAPNNISCAVISEDKRQVSSPKPQGTRYQTFVNFNYCTGILGSQSITSGKHYWEVDVSKKTAWILGVCAGFQPDAMCNIEKNENYQPKYGYWVIGLEEGVKCSAFQDSSFHTPSVPFIVPLSVIICPDRVGVFLDYEACTVSFFNITNHGFLIYKFSHCSFSQPVFPYLNPRKCGVPMTLCSPSS [human TRIM5α, 6-codon deletion at 327]” has an enrichment of 0.744 ± 0.079. “MASGILVNVKEEVTCPICLELLTQPLSLDCGHSFCQACLTANHKKSMLDKGESSCPVCRISYQPENIRPNRHVANIVEKLREVKLSPEGQKVDHCARHGEKLLLFCQEDGKVICWLCERSQEHRGHHTFLTEEVAREYQVKLQAALEMLRQKQQEAEELEADIREEKASWKTQIQYDKTNVLADFEQLRDILDWEESNELQNLEKEEEDILKSLTNSETEMVQQTQSLRELISDLEHRLQGSVMELLQGVDGVIKRTENVTLKKPETFPKNQRRVFRAPDLKGMLEVFRELTDVRRYWVDVTVAPNNISCAVISEDKRQVSSPKPQIIYGARGTRYQTFTGILGSQSITSGKHYWEVDVSKKTAWILGVCAGFQPDAMCNIEKNENYQPKYGYWVIGLEEGVKCSAFQDSSFHTPSVPFIVPLSVIICPDRVGVFLDYEACTVSFFNITNHGFLIYKFSHCSFSQPVFPYLNPRKCGVPMTLCSPSS [human TRIM5α, 6-codon deletion at 340]” showed an enrichment of 0.896 ± 0.27. “MASGILVNVKEEVTCPICLELLTQPLSLDCGHSFCQACLTANHKKSMLDKGESSCPVCRISYQPENIRPNRHVANIVEKLREVKLSPEGQKVDHCARHGEKLLLFCQEDGKVICWLCERSQEHRGHHTFLTEEVAREYQVKLQAALEMLRQKQQEAEELEADIREEKASWKTQIQYDKTNVLADFEQLRDILDWEESNELQNLEKEEEDILKSLTNSETEMVQQTQSLRELISDLEHRLQGSVMELLQGVDGVIKRTENVTLKKPETFPKNQRRVFRAPDLKGMLEVFRELTDVRRYWVDVTVAPNNISCAVISEDKRQVSSPKPQIIYGARGTRYQTFVNFNRYQTFVNFNYCTGILGSQSITSGKHYWEVDVSKKTAWILGVCAGFQPDAMCNIEKNENYQPKYGYWVIGLEEGVKCSAFQDSSFHTPSVPFIVPLSVIICPDRVGVFLDYEACTVSFFNITNHGFLIYKFSHCSFSQPVFPYLNPRKCGVPMTLCSPSS [human TRIM5α, 9-codon duplication at 335]” showed an enrichment of 0.492 ± 0.69. With “MASGILVNVKEEVTCPICLELLTQPLSLDCGHSFCQACLTANHKKSMLDKGESSCPVCRISYQPENIRPNRHVANIVEKLREVKLSPEGQKVDHCARHGEKLLLFCQEDGKVICWLCERSQEHRGHHTFLTEEVAREYQVKLQAALEMLRQKQQEAEELEADIREEKASWKTQIQYDKTNVLADFEQLRDILDWEESNELQNLEKEEEDILKSLTNSETEMVQQTQSLRELISDLEHRLQGSVMELLQGVDGVIKRTENVTLKKPETFPKNQRRVFRAPDLKGMLEVFRELTDVRRYWVDVTVAPNNISCAVISEDKRQVSSPKPQIIYGARGRYQTFVNFNYCTGILGSQSITSGKHYWEVDVSKKTAWILGVCAGFQPDAMCNIEKNENYQPKYGYWVIGLEEGVKCSAFQDSSFHTPSVPFIVPLSVIICPDRVGVFLDYEACTVSFFNITNHGFLIYKFSHCSFSQPVFPYLNPRKCGVPMTLCSPSS [human TRIM5α, 1-codon deletion at 334]” the enrichment was 0.349 ± 0.14. With “MASGILVNVKEEVTCPICLELLTQPLSLDCGHSFCQACLTANHKKSMLDKGESSCPVCRISYQPENIRPNRHVANIVEKLREVKLSPEGQKVDHCARHGEKLLLFCQEDGKVICWLCERSQEHRGHHTFLTEEVAREYQVKLQAALEMLRQKQQEAEELEADIREEKASWKTQIQYDKTNVLADFEQLRDILDWEESNELQNLEKEEEDILKSLTNSETEMVQQTQSLRELISDLEHRLQGSVMELLQGVDGVIKRTENVTLKKPETFPKNQRRVFRAPDLKGMLEVFRELTDVRRYWVDVTVAPNNISCAVISEDKRQVSSPKPQIIYGARGTRYQTFVNFNYCTVNFNYCTGILGSQSITSGKHYWEVDVSKKTAWILGVCAGFQPDAMCNIEKNENYQPKYGYWVIGLEEGVKCSAFQDSSFHTPSVPFIVPLSVIICPDRVGVFLDYEACTVSFFNITNHGFLIYKFSHCSFSQPVFPYLNPRKCGVPMTLCSPSS [human TRIM5α, 7-codon duplication at 340]” the enrichment was 0.135 ± 0.14. For “MASGILVNVKEEVTCPICLELLTQPLSLDCGHSFCQACLTANHKKSMLDKGESSCPVCRISYQPENIRPNRHVANIVEKLREVKLSPEGQKVDHCARHGEKLLLFCQEDGKVICWLCERSQEHRGHHTFLTEEVAREYQVKLQAALEMLRQKQQEAEELEADIREEKASWKTQIQYDKTNVLADFEQLRDILDWEESNELQNLEKEEEDILKSLTNSETEMVQQTQSLRELISDLEHRLQGSVMELLQGVDGVIKRTENVTLKKPETFPKNQRRVFRAPDLKGMLEVFRELTDVRRYWVDVTVAPNNISCAVISEDKRQVSSPKPQIIYGARGTRYRYQTFVNFNYCTGILGSQSITSGKHYWEVDVSKKTAWILGVCAGFQPDAMCNIEKNENYQPKYGYWVIGLEEGVKCSAFQDSSFHTPSVPFIVPLSVIICPDRVGVFLDYEACTVSFFNITNHGFLIYKFSHCSFSQPVFPYLNPRKCGVPMTLCSPSS [human TRIM5α, 2-codon duplication at 335]”, the enrichment was 0.575 ± 0.48. In the case of “MASGILVNVKEEVTCPICLELLTQPLSLDCGHSFCQACLTANHKKSMLDKGESSCPVCRISYQPENIRPNRHVANIVEKLREVKLSPEGQKVDHCARHGEKLLLFCQEDGKVICWLCERSQEHRGHHTFLTEEVAREYQVKLQAALEMLRQKQQEAEELEADIREEKASWKTQIQYDKTNVLADFEQLRDILDWEESNELQNLEKEEEDILKSLTNSETEMVQQTQSLRELISDLEHRLQGSVMELLQGVDGVIKRTENVTLKKPETFPKNQRRVFRAPDLKGMLEVFRELTDVRRYWVDVTVAPNNISCAVISEDKRQVSSPQIIYGARGTRYQTFVNFNYCTGILGSQSITSGKHYWEVDVSKKTAWILGVCAGFQPDAMCNIEKNENYQPKYGYWVIGLEEGVKCSAFQDSSFHTPSVPFIVPLSVIICPDRVGVFLDYEACTVSFFNITNHGFLIYKFSHCSFSQPVFPYLNPRKCGVPMTLCSPSS [human TRIM5α, 2-codon deletion at 324]”, the enrichment is reported as 2.55 ± 3.3. Sequence “MASGILVNVKEEVTCPICLELLTQPLSLDCGHSFCQACLTANHKKSMLDKGESSCPVCRISYQPENIRPNRHVANIVEKLREVKLSPEGQKVDHCARHGEKLLLFCQEDGKVICWLCERSQEHRGHHTFLTEEVAREYQVKLQAALEMLRQKQQEAEELEADIREEKASWKTQIQYDKTNVLADFEQLRDILDWEESNELQNLEKEEEDILKSLTNSETEMVQQTQSLRELISDLEHRLQGSVMELLQGVDGVIKRTENVTLKKPETFPKNQRRVFRAPDLKGMLEVFRELTDVRRYWVDVTVAPNNISCAVISEDKRQVSSPKPQIIYGARGTRYQTRYQTFVNFNYCTGILGSQSITSGKHYWEVDVSKKTAWILGVCAGFQPDAMCNIEKNENYQPKYGYWVIGLEEGVKCSAFQDSSFHTPSVPFIVPLSVIICPDRVGVFLDYEACTVSFFNITNHGFLIYKFSHCSFSQPVFPYLNPRKCGVPMTLCSPSS [human TRIM5α, 4-codon duplication at 334]” has an enrichment of 0.297 ± 0.41. “MASGILVNVKEEVTCPICLELLTQPLSLDCGHSFCQACLTANHKKSMLDKGESSCPVCRISYQPENIRPNRHVANIVEKLREVKLSPEGQKVDHCARHGEKLLLFCQEDGKVICWLCERSQEHRGHHTFLTEEVAREYQVKLQAALEMLRQKQQEAEELEADIREEKASWKTQIQYDKTNVLADFEQLRDILDWEESNELQNLEKEEEDILKSLTNSETEMVQQTQSLRELISDLEHRLQGSVMELLQGVDGVIKRTENVTLKKPETFPKNQRRVFRAPDLKGMLEVFRELTDVRRYWVDVTVAPNNISCAVISEDKRQVSSPKPQIIIYGARGTRYQTFVNFNYCTGILGSQSITSGKHYWEVDVSKKTAWILGVCAGFQPDAMCNIEKNENYQPKYGYWVIGLEEGVKCSAFQDSSFHTPSVPFIVPLSVIICPDRVGVFLDYEACTVSFFNITNHGFLIYKFSHCSFSQPVFPYLNPRKCGVPMTLCSPSS [human TRIM5α, 1-codon duplication at 327]” was tested, and the enrichment was 0.627 ± 0.11.

± gives the standard deviation of the averaged measurements. Restriction of a single-cycle SIVsab GFP reporter by TRIM5α v1-loop variants in CRFK cells. Human variants: read share among cells still uninfected after two challenges over input, higher = gained restriction. Rhesus variants: share among infected cells over input, higher = lost restriction. Reporter dose not given per row. No active / inactive call per row; the paper calls a change when both replicates lie above its controls (mean + 2 SD of stop or wild-type variants, or the top frameshift score). Residues outside the varied loop are taken from Swiss-Prot. The paper reads the human single-substitution scores as noise; they and the rhesus combinations repeat poorly (rank correlation 0.3 to 0.4), indel scores repeat only for the top variants, rhesus substitutions well (0.9).
